Source: the supplement of paper PMC7826260
The list shows a part of the results. Viral Rep nickase domains cut single-stranded DNA in vitro for 1 h at 37 °C with 3 µM enzyme; only the middle of the 90-letter strands is printed. Uncut reads are compared with the no-enzyme pool on a log2 scale; the lower, the more was cut; hits are not called. Reads are scaled to the total; where an enzyme cuts many sequences, the uncut ones exceed 0.

Assays:
Assay in all cases: uncleaved DNA left, log2 of reads against the no-enzyme library (log2 ratio); higher = less cleavage (more negative = more Rep cleavage of the k-mer); sequences stand for … in CTCGTCCG…ACCGGAGA
[1] = system: T1, Rep nickase domain of Muscovy duck circovirus
T1 sequence (protein, residues 1-111, tag omitted): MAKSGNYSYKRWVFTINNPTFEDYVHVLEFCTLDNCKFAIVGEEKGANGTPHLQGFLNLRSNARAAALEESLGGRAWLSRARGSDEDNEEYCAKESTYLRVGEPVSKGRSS
Method: (§1)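 A pool of 90-nt single-stranded DNAs with seven random bases just before the constant AC of the nick site (name = the seven bases) was cut by 3 µM recombinant His6-SUMO-tagged Rep nickase domain (300 nM DNA, 50 mM HEPES pH 8.0, 50 mM NaCl, 1 mM MnCl2, 1 h, 37 °C, three replicates). Uncut DNA was amplified and sequenced.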

[2] = system: T2, Rep nickase domain of banana bunchy top virus
T2 sequence (protein, residues 1-94, tag omitted): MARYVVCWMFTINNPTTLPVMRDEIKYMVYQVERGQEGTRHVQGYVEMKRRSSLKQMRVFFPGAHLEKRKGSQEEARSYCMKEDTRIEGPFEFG
Method: as §1

[3] = system: T3, Rep nickase domain of cabbage leaf curl virus
T3 sequence (protein, residues 1-116, tag omitted): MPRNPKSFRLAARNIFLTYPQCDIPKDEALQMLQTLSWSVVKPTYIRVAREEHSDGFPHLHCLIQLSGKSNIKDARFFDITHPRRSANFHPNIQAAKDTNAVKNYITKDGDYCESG
Method: as §1

[4] = system: T4, Rep nickase domain of chickpea chlorotic dwarf virus
T4 sequence (protein, residues 1-124, tag omitted): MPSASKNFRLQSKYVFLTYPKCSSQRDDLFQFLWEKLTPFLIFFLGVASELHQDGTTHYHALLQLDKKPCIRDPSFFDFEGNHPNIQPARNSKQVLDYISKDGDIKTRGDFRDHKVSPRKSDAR
Method: as §1

[5] = system: T5, Rep nickase domain of faba bean necrotic yellows virus
T5 sequence (protein, residues 1-98, tag omitted): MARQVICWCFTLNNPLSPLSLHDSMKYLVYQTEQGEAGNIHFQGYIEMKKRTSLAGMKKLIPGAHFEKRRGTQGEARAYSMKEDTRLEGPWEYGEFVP
Method: as §1

[6] = system: T6, Rep nickase domain of maize striate mosaic virus
T6 sequence (protein, residues 1-117, tag omitted): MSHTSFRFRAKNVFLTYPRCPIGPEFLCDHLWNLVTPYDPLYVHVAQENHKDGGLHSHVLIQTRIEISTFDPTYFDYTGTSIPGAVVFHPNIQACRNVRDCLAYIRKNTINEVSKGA
Method: as §1

[7] = system: T7, Rep nickase domain of porcine circovirus 2
T7 sequence (protein, residues 2-116, tag omitted): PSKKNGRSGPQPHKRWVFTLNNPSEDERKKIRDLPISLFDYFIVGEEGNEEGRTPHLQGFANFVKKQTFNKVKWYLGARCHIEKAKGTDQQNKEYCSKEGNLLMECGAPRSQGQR
Method: as §1

[8] = system: T8, Rep nickase domain of tomato yellow leaf curl virus
T8 sequence (protein, residues 1-136, tag omitted): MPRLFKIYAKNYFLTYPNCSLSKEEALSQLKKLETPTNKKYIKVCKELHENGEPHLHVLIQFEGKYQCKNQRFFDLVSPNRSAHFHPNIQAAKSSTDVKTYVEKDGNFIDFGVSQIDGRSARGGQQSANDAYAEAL
Method: as §1

[9] = system: T9, Rep nickase domain of wheat dwarf virus
T9 sequence (protein, residues 1-137, tag omitted): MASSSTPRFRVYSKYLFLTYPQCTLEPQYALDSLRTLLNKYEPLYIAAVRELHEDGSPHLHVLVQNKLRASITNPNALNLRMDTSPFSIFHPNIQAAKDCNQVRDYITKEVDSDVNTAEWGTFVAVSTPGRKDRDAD
Method: as §1

Sequence	uncleaved DNA left (log2) [1]	uncleaved DNA left (log2) [2]	uncleaved DNA left (log2) [3]	uncleaved DNA left (log2) [4]	uncleaved DNA left (log2) [5]	uncleaved DNA left (log2) [6]	uncleaved DNA left (log2) [7]	uncleaved DNA left (log2) [8]	uncleaved DNA left (log2) [9]
TACTGGA	-0.11	0.0239	-0.00493	-0.00784	-0.0355	0.101	-1.55	-0.0282	0.0707
CACGATG	0.00748	-0.118	-0.0568	0.315	0.00949	0.209	0.027	-0.0062	-0.0191
AAATATT	-4.14	-4.44	-5.18	-3.76	-3.25	-4.08	-4.98	-3.66	-4.87
GCGCCGT	-0.028	0.0706	-0.0674	-0.0584	-0.0294	-0.244	-0.0634	-0.0583	0.0838
CTCGAGA	-0.0687	0.0706	0.689	1.36	-0.0526	0.968	-0.0233	-0.119	-0.00455
GCTGTTT	-0.0237	0.138	0.175	-0.429	0.0443	0.685	-0.105	0.0467	0.135
CAAACTC	0.0365	-0.00562	-0.659	-1.72	0.106	-0.563	0.0388	0.0848	-0.226
GACTCGT	-0.00912	-0.0292	0.18	-0.0954	0.0668	0.0322	-2.71	0.0143	0.0684
TCGGAGG	0.269	0.127	0.612	1.11	0.179	1.08	0.305	0.115	0.0885
GCTATTG	-0.0898	-0.0823	-0.336	0.0813	-0.0916	-0.732	-0.0242	-0.0546	-0.139
TACAGCT	-0.0302	-0.0565	-1.25	-2.6	-0.0564	-1.09	-0.639	0.00149	-0.118
CGGGTGC	-0.0174	0.039	0.00717	0.387	0.0498	0.422	0.12	-0.067	0.0901
TAGAATT	0.0442	-3.22	-2.8	-2.67	-3.09	-0.26	-4.02	0.0258	-0.528
GCCCGGG	-0.00899	-0.0153	0.473	0.797	-0.025	0.546	0.167	0.0113	-0.053
ATGCGGC	-0.0559	-0.00964	-0.309	-0.553	-0.00308	-0.946	0.146	-0.0443	-0.0669
GGGGTCG	0.159	0.0344	0.375	0.903	0.0873	0.822	0.289	0.0253	0.162
AAGTTGC	0.000224	0.0263	-0.714	-0.481	0.0412	-1.2	-0.0212	0.061	-0.0596
TCCAGAC	0.139	0.0893	0.271	0.484	0.0444	0.124	0.0907	-0.074	-0.0768
AATGACG	-0.0493	-0.0534	-0.649	-0.704	-0.0194	-1.1	0.0729	-0.00776	-0.0999
ATGCTAT	-0.153	-0.179	-0.203	-0.595	-0.061	-0.571	-0.269	-0.107	-0.13

Sequence	uncleaved DNA left (log2) [1]	uncleaved DNA left (log2) [2]	uncleaved DNA left (log2) [3]	uncleaved DNA left (log2) [4]	uncleaved DNA left (log2) [5]	uncleaved DNA left (log2) [6]	uncleaved DNA left (log2) [7]	uncleaved DNA left (log2) [8]	uncleaved DNA left (log2) [9]
ATGCATA	-0.041	-0.0538	-0.371	-1	-0.15	-0.769	-0.172	-0.0136	0.0882
ATAGAAA	0.189	0.189	0.134	0.058	0.119	-0.497	0.227	0.125	0.0965
TCCGCAA	-0.0694	-0.092	-0.159	-0.543	-0.0937	-0.68	-0.0655	-0.0954	-0.166
CCGTAAA	0.117	-0.0324	-0.00298	-0.153	-0.00655	-0.436	-0.202	-0.0604	0.0609
TCTGGCC	0.0518	-0.0396	-0.0167	0.397	-0.0261	0.788	0.251	0.042	-0.0379
GTTCATA	-0.0178	-0.0351	0.331	0.803	-0.116	1.67	0.0161	-0.0278	0.0398
TCATAAA	0.00065	-0.0941	-0.00284	-0.144	0.132	-0.683	0.122	0.0252	-0.0236
CGGTAAC	0.0269	-0.115	0.0775	-0.235	-0.0307	0.513	0.0592	0.0303	0.00874
CTAACGC	0.0105	-0.123	-0.514	-0.882	0.00364	-0.848	0.144	-0.117	-0.239
CATCCCT	0.0833	0.0226	-0.205	-2.4	0.0487	-0.407	-0.392	0.106	0.0802
AAGTACA	-0.0636	-0.111	-0.143	-2.03	-0.129	-0.333	-2.57	0.101	0.0613
CCCGTGA	0.0521	0.107	0.37	0.144	0.157	-0.584	0.18	0.117	0.173
ATGGGAT	0.0442	-0.00462	0.167	1.55	0.057	1.85	0.144	-0.111	-0.0455
TCTAACG	-0.0798	-0.0275	-0.775	-0.762	-0.0409	-1.18	0.0888	-0.0727	-0.143
CTGCATA	0.109	-0.0263	-0.239	-0.759	0.204	-0.8	-0.0282	0.0972	-0.00425
GGGTAAC	0.0416	0.0642	0.726	1.72	0.0322	2.19	0.129	0.0893	0.139
TAGAAGT	0.187	-0.202	-0.185	-1.14	-0.0954	-0.69	-3.37	-0.0224	0.00303
TCACCTG	-0.0787	-0.0621	-0.0947	-0.213	0.0102	0.267	0.02	-0.0841	-0.0218
TTAACTG	0.0377	0.00613	-0.198	-0.137	-0.00817	1.23	0.066	0.0279	0.16
TTCCGGG	0.105	0.0713	0.745	0.857	0.159	1.81	0.251	0.0554	0.158

Sequence	uncleaved DNA left (log2) [1]	uncleaved DNA left (log2) [2]	uncleaved DNA left (log2) [3]	uncleaved DNA left (log2) [4]	uncleaved DNA left (log2) [5]	uncleaved DNA left (log2) [6]	uncleaved DNA left (log2) [7]	uncleaved DNA left (log2) [8]	uncleaved DNA left (log2) [9]
ATGATCG	0.129	-0.1	-0.913	-0.258	0.0413	-1.2	0.00871	-0.101	-0.117
TTCTATA	-0.0519	-0.0637	0.157	-1.52	0.0107	0.0776	-0.225	0.178	-0.021
ATCCGCA	-0.0663	-0.144	-0.388	-0.936	0.0289	-1.23	-0.0327	-0.127	-0.187
TGAATAA	-0.0506	-0.0332	-0.164	-0.036	0.035	-0.345	0.0349	0.0373	-0.0249
GAACAGA	0.119	0.15	0.67	1.41	-0.0702	1.68	0.231	0.103	0.203
CCCATAT	-0.171	-0.168	-0.239	-0.673	-0.118	-0.747	-0.251	-0.122	-0.14
TGGAGTT	0.182	-0.0153	0.564	0.101	0.119	1.11	0.0349	0.135	0.21
GACGTAG	0.12	-0.104	-0.0491	0.11	-0.0921	-0.223	0.157	-0.0264	-0.0296
CGTCCCG	-0.116	0.007	-0.695	-0.186	-0.0466	-0.747	0.0374	-0.0375	-0.136
TGTGTAA	0.0853	-0.047	0.17	0.384	0.0667	1.38	0.0694	0.00188	0.0224
AAAAGAG	0.0263	0.0597	-0.689	-0.479	0.139	-1.03	0.196	0.075	0.0297
ATCTATA	-0.00313	-0.0361	-0.0349	-1.7	0.00578	-0.769	-0.27	-0.0502	-0.0658
TCTGCAT	-0.0834	-0.107	-0.255	-0.727	-0.149	-0.945	-0.0797	-0.114	-0.109
GATCTCC	-0.0101	0.0758	0.00738	0.0489	0.0443	1.28	0.137	0.0632	0.0753
TATCTTC	-0.155	0.0493	0.04	-0.409	-0.0217	-0.641	-0.0771	0.0662	-0.0185
ATAAGGT	-0.00113	-0.0136	-1.52	-1.17	-0.0511	1.21	0.123	-0.19	-0.082
GGTAAGA	-0.0119	0.021	0.609	1.35	0.000384	1.75	0.262	0.0617	0.136
ATCGTAT	-0.00404	-0.0577	-0.0185	-0.324	0.0257	-0.231	-0.0137	0.102	-0.000492
AACTTGG	-0.0553	-0.0775	-0.422	-0.477	0.00626	-1.15	-0.0113	0.0913	-0.00604
GGGTGGT	-0.177	-0.097	0.54	1.53	-0.165	2.04	-0.645	-0.143	-0.0667
